# Measured values: PubChem BioAssay AID1508624 (National Center for Advancing Translational Sciences (NCATS), 2021)
# Among all 48,000 compounds or so, about 120 (0.25%) were called active. Not shown: some 4% with an inconclusive outcome. The call rests on the fitted dose curve; in most records, active means well fitted activation curve with a large enough effect; inconclusive means small, poorly fitted or top-dose-only effect, or another doubt; inactive means no such curve, though single readings can be large or run the other way. The list shows a part of the results.
# Experiment: Primary qHTS for Identification of Small Molecule Activators of Huntingtin-Antisense Promoter Activity; further: nearly all actives have a fitted effect of over 55% in size
# Conditions: HEK293 HTT-AS promoter firefly luciferase reporter (activity 0% = vehicle and -100% = no light), 24 h; series mostly up to 57.5 µM; activity change, positive = activation: at the top concentration
# Outline: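 Firefly luciferase signal from promoter-reporter HEK293 cells was scaled between vehicle (0%) and zero RLU (-100%). Compounds were tested at final concentrations of up to 57.5 uM over 24 h at 37 degrees C. PTC124 at 50 uM final served as control inhibitor.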
row,Compound,"activity change, positive = activation"
1,O=c1oc2c(CN3CCOCC3)c(O)ccc2cc1-c1ccccc1,inactive: 4.42%
2,COc1ccc(N2CCN(C(=O)c3noc4c3CCCCC4)CC2)cc1,inactive: 15.6%
3,O=C(NCCc1nc2ccccc2n1Cc1ccc(Cl)cc1)c1ccccc1,inactive: -37.9%
4,CCOC(=O)c1ccccc1NC(=O)c1sc2nc(-c3ccc(F)cc3)cn2c1C,inactive: 5.14%
5,Cc1nnc(NC(=O)CSc2nc3c([nH]c4ccccc43)c(=O)n2-c2cccc(Cl)c2)s1,inactive: -9.15%
6,COc1ccc(C)cc1NC(=O)NCCn1nnc2cc(S(=O)(=O)N(C)C)ccc21,inactive: -4.12%
7,COc1ccc(-c2nc3ccccc3o2)cc1NC(=O)c1cc(Br)ccc1OC,inactive: -4.07%
8,Cc1ccc(C(=O)OCc2cc(=O)n3nc(CC(C)C)sc3n2)cc1,inactive: -8.66%
9,COc1ccc(CCNC(=O)c2cnc3sc(N4CCCCCC4)nn3c2=O)cc1,inactive: -16.6%
10,CC(C(=O)O)c1ccc2c(c1)[nH]c1ccc(Cl)cc12 (centres undefined),inactive: -1.74%
11,Cc1cccc(N2CCN(C(=O)Cc3c(C(=O)O)c(C)cn3C)CC2C)c1 (centres undefined),inactive: -15.2%
12,CN(Cc1ccccc1)C(=O)c1ccc(CSc2nc3cccnc3n2Cc2ccccc2)cc1,inactive: -33.2%
13,COC(=O)c1c(NC(=O)COc2ccc(C(C)C)cc2)sc2c1CCCC2,inactive: 0.0014%
14,COc1ccc(C2CC(=O)Nc3c2c(C)nn3-c2nc(C)cc(C)n2)c(OC)c1OC (centres undefined),inactive: 2.1%
15,COc1ccccc1CCNC(=O)C1(c2cccs2)CCOCC1,inactive: -8.15%
16,CCc1cccc(NC(=O)CCn2nc(C)cc2C)c1,inactive: -0.178%
17,CCC(=O)NCCc1sc2nc(-c3ccc(OC)cc3)nn2c1C,inactive: 21.7%
18,CCCS(=O)(=O)Nc1cccc(-c2cn3ccsc3n2)c1,inactive: 0.221%
19,Cc1cccc(CSc2nc3ccncc3n2CC(=O)N(C)C2CCCCC2)c1,inactive: -22.8%
20,COc1ccc(CCNC(=O)c2ccc3nc(CCc4ccccc4)oc3c2)cc1OC,inactive: -8.33%
21,COc1ccc(NC(=O)Cn2c(=O)oc3cc(S(=O)(=O)N4CCCC4)ccc32)cc1OC,inactive: -31.6%
22,COc1ccc(OC)c(NC(=O)c2nnn(CC(=O)Nc3ccc(C(C)C)cc3)c2N)c1,inactive: -13.2%
23,CCCCc1cc2ccccc2c(OCCN(C)C)n1,inactive: -35.1%
24,COc1ccc(NC(=O)Cn2cnc3c(nc4n3CCCCC4)c2=O)cc1Cl,inactive: -1.69%
25,Cc1cccc(NC(=O)CN2C(=O)C(c3ccc(F)cc3)=NC23CCCCCC3)c1C,inactive: -51.1%
26,Cc1cc2c(cc1S(=O)(=O)NCc1ccc(F)cc1)OCC(=O)N2,inactive: -16.1%
27,COc1ccc(NC(=O)CN2C(=O)COc3ccc(S(=O)(=O)NC4CCCC4)cc32)cc1OC,inactive: -8.57%
28,Cc1ccc(-n2ncc3c(NC4CCCCC4)ncnc32)cc1C,inactive: -21%
29,CCC(C(=O)NC(=O)NC(C)=O)c1ccccc1 (centres undefined),inactive: -9.86%
